Values marked as one replicate rest on one cluster of the flow cell; about a third of the high ones do not repeat.
Tested on: ATP
Assay: switch fluorescence ratio, 500 uM ATP over buffer (Cy3 cluster intensity, sum of 5 cycles each) (fold (ratio)); higher = stronger signal-on switching upon ATP binding; sequences stand for … in TCGTCGGCAGCGTCAGATGTGTATAAGAGACAGTTTTTTTTTTTTTTTTTTTTTTTTT…TC
Conditions: aptamer strand: ATP DNA aptamer (quencher-CACCTGGGGGAGTATTGCGGAGGAAGG + anchor), 100 nM annealed; ATP concentration: 500 uM; one replicate
How it was run: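 For every switch-domain sequence, the fluorescence ratio is the mean of per-cluster values, each being summed target-cycle Cy3 intensity over summed buffer-cycle Cy3 intensity. Clusters outside 100-1000 RFU were excluded. On a modified Illumina MiSeq flow-cell, the Cy3-labelled switching-strand clusters were annealed to 100 nM quencher-labelled ATP aptamer, imaged in selection buffer and then after 15 min with 500 uM ATP at 22 °C. Five such cycles were run, with NaOH stripping and re-annealing between them.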
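Further: ATP exposure 15 min at 22 °C before imaging.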

Sequence CTTGTTATGG has a switch fluorescence ratio of 0.998.
GATCCCCTGC gave a switch fluorescence ratio of 1.01.
ATATAAAGGC gave a switch fluorescence ratio of 0.996.
Sequence CTACGGGTGA has a switch fluorescence ratio of 1.03.
CATTGAAAAG gave a switch fluorescence ratio of 1.01.
CCCTTGGGGA gave a switch fluorescence ratio of 1.
TACGGATTCG showed a switch fluorescence ratio of 1.
For TGGACTGGGA, the switch fluorescence ratio was 0.971.
Work on AAACTAATAC yielded a switch fluorescence ratio of 1.48.
TCTGTAAGCT gave a switch fluorescence ratio of 1.04.
In the case of GAGACGGTTC, the switch fluorescence ratio is reported as 1.04.
For AAGACTGGTG, the switch fluorescence ratio was 0.97.
Work on GCTGCGAGGA yielded a switch fluorescence ratio of 1.02.
Work on AAGGTTATGG yielded a switch fluorescence ratio of 1.03.
GGATACCGTG gave a switch fluorescence ratio of 1.01.
GAATTGCGTT gave a switch fluorescence ratio of 0.983.
ATTAGCTTGG showed a switch fluorescence ratio of 0.988.
Sequence ACTCTAGTCT has a switch fluorescence ratio of 1.02.
GGACCGCCCG showed a switch fluorescence ratio of 1.02.
Sequence ACAGAGAGTT has a switch fluorescence ratio of 1.02.
For AGCGAAGAAC, the switch fluorescence ratio was 1.02.
Work on ACTTTTATTT yielded a switch fluorescence ratio of 0.961.
For GACAAGTACT, the switch fluorescence ratio was 1.21.
With AATGGGGCT the switch fluorescence ratio was 0.969.
GATATCAAGA was tested, and the switch fluorescence ratio was 1.04.
Sequence TCTATTACGG has a switch fluorescence ratio of 0.973.
GCGGTCCAGT was tested, and the switch fluorescence ratio was 1.06.
Sequence CGCGCACCGG has a switch fluorescence ratio of 0.991.
TAGCGGCATC was tested, and the switch fluorescence ratio was 0.991.
Sequence GCTATTTGTG has a switch fluorescence ratio of 0.997.
AAGTAGCGCC showed a switch fluorescence ratio of 0.985.
GGACATTCAG showed a switch fluorescence ratio of 1.01.
With CATCAACGGC the switch fluorescence ratio was 1.03.
For GGTAGACCTG, the switch fluorescence ratio was 0.991.
GTTTAGTA was tested, and the switch fluorescence ratio was 0.936.
CCTAAACGGT was tested, and the switch fluorescence ratio was 0.994.
AGTACCAACC showed a switch fluorescence ratio of 1.11.
TCTGGCGCTA showed a switch fluorescence ratio of 1.44.
In the case of AGTATGTACC, the switch fluorescence ratio is reported as 1.07.
For TGTGGGTCCC, the switch fluorescence ratio was 1.01.
For TGAAGTTTAG, the switch fluorescence ratio was 1.04.
In the case of TGCTTAAGAG, the switch fluorescence ratio is reported as 1.03.
In the case of TTCGGCTAAT, the switch fluorescence ratio is reported as 1.03.
For AAGTTAATTA, the switch fluorescence ratio was 0.997.
Work on TCGTCCCGAG yielded a switch fluorescence ratio of 0.958.
Sequence ACGTTTGGGT has a switch fluorescence ratio of 0.984.
TCTCTGGGGG was tested, and the switch fluorescence ratio was 1.03.
For TGACGATCTG, the switch fluorescence ratio was 1.02.
In the case of TCCCTAGGGT, the switch fluorescence ratio is reported as 1.06.
AAATAATTGA showed a switch fluorescence ratio of 0.994.
TTAAGAGCCA was tested, and the switch fluorescence ratio was 0.974.
In the case of TTCCTGCTA, the switch fluorescence ratio is reported as 1.21.
TACGAAATGA was tested, and the switch fluorescence ratio was 1.99.
Work on CCTATTTTGC yielded a switch fluorescence ratio of 1.
With GTCCACGCAC the switch fluorescence ratio was 2.02.
With ACGAGGCCTA the switch fluorescence ratio was 1.13.
In the case of TTAACTCTA, the switch fluorescence ratio is reported as 1.01.
For TTGAAGGACC, the switch fluorescence ratio was 1.02.
In the case of CGAAAAGTGA, the switch fluorescence ratio is reported as 0.997.
For GAGAGGAGG, the switch fluorescence ratio was 1.01.
With GCAGTCTTAA the switch fluorescence ratio was 0.978.
Sequence ATGATATACG has a switch fluorescence ratio of 1.04.
With AACGCTGGAT the switch fluorescence ratio was 1.04.
For AGTCGTAGGA, the switch fluorescence ratio was 1.01.
With GAATGCTCTC the switch fluorescence ratio was 0.995.
For CTATGGAGGA, the switch fluorescence ratio was 1.01.
With CAACTTGGTC the switch fluorescence ratio was 1.07.
In the case of GCAAGGGGGC, the switch fluorescence ratio is reported as 1.08.
Sequence GATGTGCGTA has a switch fluorescence ratio of 0.957.
For AGTCTAGGGG, the switch fluorescence ratio was 1.01.
ACCGAGTGTG gave a switch fluorescence ratio of 1.
With ATAACATCTA the switch fluorescence ratio was 1.04.
With AACATCATGG the switch fluorescence ratio was 1.03.
For TTCGAGTGAT, the switch fluorescence ratio was 1.01.
Sequence ACCTTCGGCG has a switch fluorescence ratio of 1.33.
Sequence AGGAAATGTC has a switch fluorescence ratio of 1.
Sequence AGGATGACTT has a switch fluorescence ratio of 0.977.
GTCGTCACA showed a switch fluorescence ratio of 1.02.
Work on TAAATCCAAT yielded a switch fluorescence ratio of 0.996.
Work on GGCGGTTGT yielded a switch fluorescence ratio of 0.973.
In the case of GGTGGCTAGG, the switch fluorescence ratio is reported as 0.997.
Sequence TCATTGGCGG has a switch fluorescence ratio of 1.01.
In the case of AGGCGACTGT, the switch fluorescence ratio is reported as 0.985.
CCGTATCTTA was tested, and the switch fluorescence ratio was 0.998.
Sequence TTGGTAGGTA has a switch fluorescence ratio of 0.997.
Work on TAACTTCTCT yielded a switch fluorescence ratio of 1.01.
CGGTTGGTCA was tested, and the switch fluorescence ratio was 0.971.
Work on TGGAGGGTCA yielded a switch fluorescence ratio of 0.998.
GCTGATACG showed a switch fluorescence ratio of 1.06.
Work on AGATACAGGA yielded a switch fluorescence ratio of 1.03.
In the case of TTTTACTCCC, the switch fluorescence ratio is reported as 2.05.
Work on TGGTCAATGT yielded a switch fluorescence ratio of 0.958.
In the case of TTGAAGCTTT, the switch fluorescence ratio is reported as 1.75.
For CACCGTGTCG, the switch fluorescence ratio was 1.05.
For CCGATGTAGA, the switch fluorescence ratio was 1.06.
TAAGGTCCAG gave a switch fluorescence ratio of 1.02.
TACGGCCTCA was tested, and the switch fluorescence ratio was 1.05.
With AGGTCGATGG the switch fluorescence ratio was 0.994.
For TGTACTTTTG, the switch fluorescence ratio was 1.04.
In the case of GAGACGCAGG, the switch fluorescence ratio is reported as 0.984.
TCCTTCAGTT showed a switch fluorescence ratio of 0.964.
Work on AGGCGAATCA yielded a switch fluorescence ratio of 0.99.
For CGAGGGTCCA, the switch fluorescence ratio was 0.955.
For GCTCGTATAA, the switch fluorescence ratio was 1.01.
Work on GTGTTATACT yielded a switch fluorescence ratio of 1.03.
With ACCCGCTTAT the switch fluorescence ratio was 2.53.
Sequence CCGGGAAAAA has a switch fluorescence ratio of 0.947.
For TAGTCGCTT, the switch fluorescence ratio was 1.03.
With AGGTAAAAGG the switch fluorescence ratio was 0.96.
GCGGGGTTG was tested, and the switch fluorescence ratio was 0.983.
CTGTATAACA was tested, and the switch fluorescence ratio was 0.985.
TTTATTCAAA gave a switch fluorescence ratio of 1.01.
ACTGTTTCGG gave a switch fluorescence ratio of 1.01.
With GCGGCCGGAC the switch fluorescence ratio was 0.983.
GTCACATGAC showed a switch fluorescence ratio of 1.04.
For ACGCCGGGAT, the switch fluorescence ratio was 0.998.
Sequence TAGGGTTCGA has a switch fluorescence ratio of 0.997.
In the case of CATACATTGG, the switch fluorescence ratio is reported as 0.948.
With TGAATCCTT the switch fluorescence ratio was 0.992.
GTGGTCCG was tested, and the switch fluorescence ratio was 1.02.
In the case of ACACTCGCTT, the switch fluorescence ratio is reported as 1.03.
TGCAACGGGG showed a switch fluorescence ratio of 1.
GTATCAGCAT gave a switch fluorescence ratio of 1.01.
Work on CAAAGGCCGG yielded a switch fluorescence ratio of 1.03.
In the case of TCGATTCGCA, the switch fluorescence ratio is reported as 1.09.
With TTAAGGTGAT the switch fluorescence ratio was 1.1.
Work on TTGCTTGGCC yielded a switch fluorescence ratio of 1.
Sequence AGTAATCGAG has a switch fluorescence ratio of 0.996.
TGATGCTTAC gave a switch fluorescence ratio of 2.88.
ATCGTCATAG was tested, and the switch fluorescence ratio was 1.01.
For TTCCTCTCTT, the switch fluorescence ratio was 1.02.
With CTGGATGGGT the switch fluorescence ratio was 0.989.
GATCGCGTTA was tested, and the switch fluorescence ratio was 1.
With GTTCCGTTGA the switch fluorescence ratio was 1.05.
Work on GGCCAAGCGT yielded a switch fluorescence ratio of 0.972.
Work on TTCAGTAGCT yielded a switch fluorescence ratio of 1.05.
TGCATGGGAT showed a switch fluorescence ratio of 0.985.
TCATGTGATT gave a switch fluorescence ratio of 1.
With GCTTAGTCGT the switch fluorescence ratio was 0.983.
Work on GGGTTATACT yielded a switch fluorescence ratio of 0.988.
TTGTCACGTA was tested, and the switch fluorescence ratio was 1.03.
GGAACCAGCA gave a switch fluorescence ratio of 1.08.
With TTCGTTAGCT the switch fluorescence ratio was 1.02.
In the case of AAGATTTCG, the switch fluorescence ratio is reported as 1.02.
In the case of AATTCGGTAG, the switch fluorescence ratio is reported as 1.03.
For GGGTAGCTGA, the switch fluorescence ratio was 0.984.
ACCACACCAT gave a switch fluorescence ratio of 1.34.
In the case of GAGAAAGACG, the switch fluorescence ratio is reported as 0.982.
GGACCTCAGT gave a switch fluorescence ratio of 0.984.
For ATGCAGCTTT, the switch fluorescence ratio was 1.06.
TCATAGTGTA gave a switch fluorescence ratio of 0.999.
For CTCAAAGGGT, the switch fluorescence ratio was 1.03.
Work on ACACGTGATG yielded a switch fluorescence ratio of 1.03.
CCAAAGCGCA showed a switch fluorescence ratio of 2.14.
With CAATCTTTAT the switch fluorescence ratio was 1.04.
In the case of ATGTGCAACT, the switch fluorescence ratio is reported as 1.02.
Sequence TCCACCTCGT has a switch fluorescence ratio of 1.

From the supplement of paper PMC10126150
